Our source for the activity change, negative = inhibition values is PubChem BioAssay AID1745853 (National Center for Advancing Translational Sciences (NCATS), 2022).

Each structure is given as a SMILES string. This is one part of the list. Further columns of the screen follow, without active or inactive calls.

Common to all, as to assay: Primary Screen for Target Class Profiling of Small Molecule Inhibitors of Methyltransferases
For experiment [1], the target named is Glycine N-methyltransferase (Homo sapiens) (UniProt Q14749). As to conditions: purified enzyme, MTase-Glo SAH luminescence; measured here: GNMT inhibition; at 40 µM; stronger effect = lower value. Summed up: (§1)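 Each enzyme was assayed with SAM and its substrate. SAH formation detected by MTase-Glo luminescence; single-point 40 uM screen[…].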
Experiment [2] addresses Guanidinoacetate N-methyltransferase (Homo sapiens) (UniProt Q14353). As to conditions: purified enzyme, MTase-Glo SAH luminescence; measured here: GAMT inhibition; at 40 µM; stronger effect = lower value. In short, it runs like this:
as §1

Experiment [3] addresses Histamine N-methyltransferase (Homo sapiens) (UniProt P50135). Particulars: purified enzyme, MTase-Glo SAH luminescence; measured here: HNMT inhibition; at 40 µM; stronger effect = lower value. Summed up: as §1
In experiment [4] the target is Nicotinamide N-methyltransferase (Homo sapiens) (UniProt P40261). As to conditions: purified enzyme, MTase-Glo SAH luminescence; measured here: NNMT inhibition; at 40 µM; stronger effect = lower value. In short, it runs like this:
as §1

Experiment [5] addresses Phenylethanolamine N-methyltransferase (Homo sapiens) (UniProt P11086). Particulars: purified enzyme, MTase-Glo SAH luminescence; measured here: PNMT inhibition; at 40 µM; stronger effect = lower value. Summed up: as §1
% is scaled to controls: 0 for no effect and ±100 for the full control effect.

`CC1CCCN(c2ncnc3c2CN(c2cccnc2)C(=O)CN3C)C1` (stereo unspecified): the activity change, negative = inhibition in experiment [1] is -4.6%; in experiment [2] it was -5.64%; in experiment [3], -1.57%; in experiment [4] it was -11.8%; in experiment [5], -5.36%.

Take `CCCC1c2cccn2CCN1C(=O)Nc1cc(Cl)ccc1OC` (stereo unspecified): the activity change, negative = inhibition in experiment [1] is 1.99%; in experiment [2], 0%; in experiment [3], -27.1%; in experiment [4], 5.07%; in experiment [5], 8.65%.

With `CNC(=O)c1cccc(S(=O)(=O)NC2CCCN(C3CCCCCC3)C2)c1` (stereo unspecified), the activity change, negative = inhibition was -1.72% in experiment [1]; -6.08% in experiment [2]; -4.13% in experiment [3]; -3.32% in experiment [4]; -2.08% in experiment [5].

Regarding `CCc1cc(C(=O)N2CCOCC2CC(=O)N2CCSCC2)cs1` (stereo unspecified), the activity change, negative = inhibition was -0.765% in experiment [1]; 2.08% in experiment [2]; 3.56% in experiment [3]; -1.6% in experiment [4]; 3.24% in experiment [5].

With `COCC(=O)N1CCC(Oc2ccccc2C(=O)N2CCN(c3ccccn3)CC2)CC1`, the activity change, negative = inhibition in experiment [1] was -1.48%; in experiment [2], -2.18%; in experiment [3], -2.73%; in experiment [4], -5.08%; in experiment [5], -3.27%.

With `O=C(Cn1ccc2cc(S(=O)(=O)N3CCCCC3)ccc21)NCCCN1CCCC1`, the activity change, negative = inhibition in experiment [1] was 0.567%; in experiment [2], 0%; in experiment [3], -26.4%; in experiment [4], 2.61%; in experiment [5], -4.24%.

Consider `O=C1Nc2ccccc2C(=O)N2CC[C@H](NS(=O)(=O)c3cccs3)[C@@H]12`, for which the activity change, negative = inhibition in experiment [1] was -4.67%; in experiment [2], -1.92%; in experiment [3], -3.15%; in experiment [4] it was -6.64%; in experiment [5], -4.09%.

For `C=CCOc1c(OC)ccc2c1CN(Cc1ccco1)C(=O)CCN2CC(O)COCc1ccco1` (stereo unspecified), the activity change, negative = inhibition is -15.5% in experiment [1]; -6.66% in experiment [2]; -5.67% in experiment [3]; -14.3% in experiment [4]; -8.38% in experiment [5].

Take `COc1ccc2c(c1)C=C1Cn3c-2c(C2CCCCC2)c2ccc(cc23)C(=O)NS(=O)(=O)N(C)CCOCCN(C)C1=O`: the activity change, negative = inhibition in experiment [1] is -7.22%; in experiment [2], 9.54%; in experiment [3], -10%; in experiment [4] it was -43.3%; in experiment [5], 0.492%.

Consider `CCc1ccccc1NS(=O)(=O)c1ccc2c(c1)n(C)c(=O)n2C`, for which the activity change, negative = inhibition in experiment [1] is -1.85%; in experiment [2], 6.35%; in experiment [3], -2.51%; in experiment [4], -9.78%; in experiment [5] it was -6.76%.

For the compound `NC(=O)c1ccccc1OC[C@@H]1CCCN2CCCC[C@H]12`, the activity change, negative = inhibition was -1.42% in experiment [1]; -0.298% in experiment [2]; -16.2% in experiment [3]; 2.02% in experiment [4]; -1.5% in experiment [5].

With `COc1ccc(-c2cc3n(n2)CC(C)(C(=O)NCc2ccccc2OC)N(c2ccc(F)cc2F)C3=O)cc1` (stereo unspecified), the activity change, negative = inhibition in experiment [1] was determined as 9.32%; in experiment [2] it was 0.988%; in experiment [3], 7.68%; in experiment [4], 7.67%; in experiment [5] it was 3.63%.

As for `NC(N)=NCc1cccc(I)c1`, the activity change, negative = inhibition in experiment [1] is 11.5%; in experiment [2], 10.1%; in experiment [3], 5.87%; in experiment [4], -8.47%; in experiment [5], -7.15%.

Consider `Cc1ccc(-c2n[nH]n3c2nc(=O)c2ccc(C(=O)N4CCN(c5ccc(F)cc5)CC4)cc23)cc1`, for which the activity change, negative = inhibition is -16.3% in experiment [1]; 1.19% in experiment [2]; 0.497% in experiment [3]; -4.07% in experiment [4]; 0.021% in experiment [5].

For the compound `COc1cc(OC)c(NC(=O)c2ccc(Cc3cc4c(cc3C)C(C)(C)CCC4(C)C)o2)c(OC)c1`, the activity change, negative = inhibition in experiment [1] was -1.63%; in experiment [2] it was -3.55%; in experiment [3], 7.48%; in experiment [4], -48%; in experiment [5], -5.58%.

Take `CCOC(=O)c1cc2n(n1)CC(C)(C(=O)NC1CCCCCC1)N(Cc1ccccc1F)C2=O` (stereo unspecified): the activity change, negative = inhibition in experiment [1] is 3.08%; in experiment [2] it was 3.15%; in experiment [3] it was 3.54%; in experiment [4], 5.99%; in experiment [5], 2.68%.

On to `CCCCCCCOc1cc2c(cc1/C(C)=C/c1ccc(C(=O)O)cc1)C(C)(C)CCS2(=O)=O`, for which the activity change, negative = inhibition was -43% in experiment [1]; -19.4% in experiment [2]; -34.6% in experiment [3]; -85.7% in experiment [4]; -5.78% in experiment [5].

With `O=C1NCCSc2c1sc1ccc(O)cc21`, the activity change, negative = inhibition in experiment [2] is -9.96%; in experiment [4], -34.2%; in experiment [5], -7.86%.

For the compound `O=C(CCc1nnc2n(Cc3ccc(Cl)cc3)c(=O)c3ccccc3n12)NCCN1CCCC1`, the activity change, negative = inhibition in experiment [1] is -12.2%; in experiment [2] it was 0%; in experiment [3] it was -63.3%; in experiment [4] it was 2.43%; in experiment [5] it was -0.976%.

On to `CN1CC(=O)N(C2CCNC2)Cc2c(NCCc3cccc(F)c3)ncnc21` (stereo unspecified), for which the activity change, negative = inhibition in experiment [1] is -2.44%; in experiment [2] it was -0.837%; in experiment [3] it was -13.1%; in experiment [4] it was -4.57%; in experiment [5] it was -5.03%.

For `O=C(NCc1ccco1)C(NS(=O)(=O)c1cccc2nsnc12)c1ccccc1` (stereo unspecified), the activity change, negative = inhibition came out at 2.41% in experiment [1]; 0% in experiment [2]; 10% in experiment [3]; 15.3% in experiment [4]; 4.04% in experiment [5].

Regarding `C/C=C/c1ccc(O[C@@H]2O[C@H](CO)[C@@H](O)[C@H](O)[C@H]2O)c(OC)c1`, the activity change, negative = inhibition was -6.32% in experiment [1]; -24.8% in experiment [2]; -0.119% in experiment [3]; -25.3% in experiment [4]; -11.6% in experiment [5].

With `COc1cccc(CNC(=O)C2CN(c3ccc(F)cc3)C(=O)N2)c1` (stereo unspecified), the activity change, negative = inhibition in experiment [1] was -5.22%; in experiment [2] it was -9.85%; in experiment [3], -6.67%; in experiment [4], -13.5%; in experiment [5], -12.2%.

As to `CCC1CCCCN1CCCN1C(=O)c2cc3occc3n2CC1(C)C(=O)NC1CCCCCCC1` (stereo unspecified), the activity change, negative = inhibition is 1.62% in experiment [1]; 4.5% in experiment [2]; -9.79% in experiment [3]; -1.93% in experiment [4]; -2.97% in experiment [5].

Take `C=CC(=O)c1ccc2ccccc2c1`: the activity change, negative = inhibition in experiment [2] is -36%; in experiment [4], -37.8%; in experiment [5], -5.36%.

Consider `O=C(O)C[C@@H]1CCN(C(=O)c2ccco2)C[C@@H]1CCN1CCOCC1`, for which the activity change, negative = inhibition in experiment [1] was -2.28%; in experiment [2], -3.49%; in experiment [3] it was 0.033%; in experiment [4], -6.81%; in experiment [5] it was -20%.

Take `CCCn1c(=O)c2ccc(C(=O)NC(C)C)cc2n2c(SCC(=O)Nc3ccc(C)c(F)c3)nnc12`: the activity change, negative = inhibition is -3.89% in experiment [1]; -0.258% in experiment [2]; -6.03% in experiment [3]; -3.74% in experiment [4]; -4.43% in experiment [5].

For the compound `CNC(=O)Cn1nc(C(=O)N2CCC3(CC2)[C@H](O)C[C@@H]3O)cc1C`, the activity change, negative = inhibition is 0.633% in experiment [1]; -0.351% in experiment [2]; 1.41% in experiment [3]; 0.828% in experiment [4]; -0.102% in experiment [5].

For `Cc1cc(N2CCCCC2)nc2ccccc12`, the activity change, negative = inhibition is 3.89% in experiment [1]; 5.3% in experiment [2]; 2.15% in experiment [3]; -5.89% in experiment [4]; 2.58% in experiment [5].

Regarding `CCCC1c2ccc(C)n2CCN1C(=O)NCc1ccccc1` (stereo unspecified), the activity change, negative = inhibition is -1.1% in experiment [1]; 4.51% in experiment [2]; -7.99% in experiment [3]; 4.52% in experiment [4]; -4.28% in experiment [5].

Take `C[C@@H](c1ccc2nccn2c1)n1nnc2ncc(-c3cnn(C)c3)nc21`: the activity change, negative = inhibition in experiment [1] was -13.7%; in experiment [2], -15.3%; in experiment [3], -14%; in experiment [4], -25.8%; in experiment [5], -22.1%.
